This passage reports cell count results from the supplement of paper PMC4604168 (melanoma cell lines).

The list shows a part of the results. Single values are uncertain, as repeats are few or missing.
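Note: cells treated in 1,536-well plates, then fixed and DAPI-stained, with nuclei counted from automated high-throughput microscope images.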

The test system of the experiment is WM451Lu. Description: cell count relative to DMSO control; melanoma cells; higher = more viable cells. Particulars: library dose: standard library concentration; 72 h.
For `CC[C@]1(O)C[C@H]2CN(CCc3c([nH]c4ccccc34)[C@@](C(=O)OC)(c3cc4c(cc3OC)N(C=O)[C@H]3[C@@](O)(C(=O)OC)[C@H](OC(C)=O)[C@]5(CC)C=CCN6CC[C@]43[C@@H]65)C2)C1` [vincristine] + CN(NC(=O)CC(=O)NN(C)C(=S)c1ccccc1)C(=S)c1ccccc1 [STA4783] (first compound 0.0005 µM, partner dose 0.03 µM), the cell count worked out at 26.1%.

Compound `CC[C@]1(O)C[C@H]2CN(CCc3c([nH]c4ccccc34)[C@@](C(=O)OC)(c3cc4c(cc3OC)N(C=O)[C@H]3[C@@](O)(C(=O)OC)[C@H](OC(C)=O)[C@]5(CC)C=CCN6CC[C@]43[C@@H]65)C2)C1` [vincristine] + CO[C@@H]1[C@H](N(C)C(=O)c2ccccc2)C[C@H]2O[C@]1(C)n1c3ccccc3c3c4c(c5c6ccccc6n2c5c31)C(=O)NC4 [Midostaurin] (first compound 0.0005 µM, partner dose 0.4 µM) showed a cell count of 31.4%.

With `N#CC[C@H](C1CCCC1)n1cc(-c2ncnc3[nH]ccc23)cn1` [ruxolitinib] + CN1CCN(c2ccc3nc(-c4c(N)c5c(F)cccc5[nH]c4=O)[nH]c3c2)CC1 [Dovitinib] (first compound 5 µM, partner dose 0.5 µM), the cell count is 81.8%.

As for `N#CC[C@H](C1CCCC1)n1cc(-c2ncnc3[nH]ccc23)cn1` [ruxolitinib] + CN(C)S(=O)(=O)c1ccc2c(c1)/C(=C/c1cc3c([nH]1)CCCC3)C(=O)N2 [SU6656] (first compound 5 µM, partner dose 2 µM), the cell count amounted to 79.3%.
